Experimental data from PubChem BioAssay AID1768 (National Center for Advancing Translational Sciences (NCATS), 2009).
In all, about 270,000 compounds went through this assay and about 620 (0.23%) were called active. This list was built around the results that the source calls inconclusive (neither active nor inactive); the mix of calls is not that of the screen. The call rests on the fitted dose curve; in most records, active means well fitted inhibition curve with a large enough effect in the polarisation, with a control signal flat (not every such curve was filed as active); inconclusive means small, poorly fitted or top-dose-only effect, or effect the other way, or a change in a side signal; inactive means no such curve, though single readings can be large or run the other way; the % refers to the polarisation. Potencies beside an inconclusive call are fits to weak or partial responses and may not hold up. “Side channel” marks fits to a control or component signal instead of the main read-out.

Molecular target: Menin (Homo sapiens) (UniProt O00255)
Assay: qHTS Assay for Inhibitors Targeting the Menin-MLL Interaction in MLL Related Leukemias: Competition With Texas Red Labeled MLL-derived Mutant Peptide
Details: fluorescence polarization; series mostly up to 61.6 µM
Potency means the concentration at half of the fitted maximal effect; tags describe the fitted curve by direction and shape or compound fluorescence and quenching.

Chain of UniProt O00255 (O00255 whole entry, looked up): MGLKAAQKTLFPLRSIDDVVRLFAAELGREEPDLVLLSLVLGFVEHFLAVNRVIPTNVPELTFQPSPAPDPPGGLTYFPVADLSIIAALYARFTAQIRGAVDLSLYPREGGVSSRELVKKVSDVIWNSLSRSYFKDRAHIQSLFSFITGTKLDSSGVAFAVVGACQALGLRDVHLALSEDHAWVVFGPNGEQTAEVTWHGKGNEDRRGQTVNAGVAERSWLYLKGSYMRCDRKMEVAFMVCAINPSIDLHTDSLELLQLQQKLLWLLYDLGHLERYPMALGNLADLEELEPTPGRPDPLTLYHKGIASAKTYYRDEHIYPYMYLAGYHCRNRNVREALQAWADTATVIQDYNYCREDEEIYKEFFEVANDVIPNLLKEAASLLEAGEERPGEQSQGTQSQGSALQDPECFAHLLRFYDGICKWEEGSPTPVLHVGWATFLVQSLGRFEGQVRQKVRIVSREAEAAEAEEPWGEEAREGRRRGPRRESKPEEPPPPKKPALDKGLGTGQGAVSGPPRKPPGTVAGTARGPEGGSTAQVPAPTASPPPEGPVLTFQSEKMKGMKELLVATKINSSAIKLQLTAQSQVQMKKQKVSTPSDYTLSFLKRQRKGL

Compound	Potency
CN(C)S(=O)(=O)c1cc(NC(=O)COC(=O)CCSc2ccc(Cl)cc2)ccc1Cl	inconclusive: 8.91 µM [quencher, side channel, full curve, poor fit]
Cc1ccc(S(=O)(=O)Nc2ccc(C(=O)Nc3ccncc3)cc2)cc1	inconclusive: 31.6 µM [quencher, side channel, single point]
CCOC(=O)c1sc(N/N=C/c2ccc(N(C)C)cc2)nc1C	inconclusive: 7.08 µM [quencher, side channel, partial curve]
Cc1ccc(OC(=O)c2ccccc2C(=O)OCC(F)(F)C(F)F)cc1	inconclusive: 14.1 µM [fluorescent, side channel, partial curve]
O=C(Nc1ccccc1C(=O)O)c1cc(S(=O)(=O)N2CCCCC2)c(Cl)cc1Cl	inconclusive: 39.8 µM [quencher, side channel, single point]
COc1ccc(OCC(=O)Nc2cccc(NC(=O)c3ccco3)c2)cc1	inconclusive: 31.6 µM [quencher, side channel, single point]
COC(=O)c1sccc1NC(=O)Nc1cccc(Cl)c1Cl	inconclusive: 35.5 µM [quencher, side channel, partial curve]
CCOc1ccc(S(=O)(=O)Nc2cc(C)ccn2)c2ccccc12	inconclusive: 25.1 µM [fluorescent, side channel, single point]
O=C(Nc1ccccc1)/C(=C/c1ccccc1)c1ccccc1	inconclusive: 7.94 µM [inhibitor, partial curve]
Cc1ccccc1OCC(=O)Nc1ccccc1N1CCC(C)CC1	inconclusive: 8.91 µM [fluorescent, side channel, partial curve]
O=C(Nc1nc(-c2cccs2)cs1)c1cccc(S(=O)(=O)N2CCCCC2)c1	inconclusive: 39.8 µM [inhibitor, single point]
COc1ccc(Cc2nnc(NC(=O)Nc3ccccc3OC)s2)cc1	inconclusive: 39.8 µM [fluorescent, single point]
CCCn1c(=O)c(C(=O)NNS(=O)(=O)c2ccc(C)cc2)c(O)c2ccccc21	inconclusive: 7.08 µM [inhibitor, full curve]
O=C(NC(=S)N1CCN(c2ccc([N+](=O)[O-])cc2)CC1)c1ccco1	inactive
O=C(Cc1coc2cc3c(cc12)CCC3)NC1CCCCCCC1	inconclusive: 3.16 µM [fluorescent, side channel, partial curve]
Cc1cccc(NC(=O)c2cc(=O)c3ccccc3o2)n1	inactive
Cc1c(CCOC(=O)CC23CC4CC(CC(C)(C4)C2)C3)sc[n+]1CC(=O)c1ccccc1	inconclusive: 3.55 µM [fluorescent, side channel, full curve]
COc1ccc(NC(=O)c2c3c(nc4ccccc24)CCC3)cc1S(=O)(=O)N1CCOCC1	inconclusive: 39.8 µM [quencher, side channel, single point]
O=C(Nc1cc(Sc2nc3ccccc3s2)cc([N+](=O)[O-])c1)c1cccc(F)c1F	inconclusive: 3.16 µM [quencher, side channel, full curve, poor fit]

Compound	Potency
CC(C)C[C@@H](CC(=O)N[C@@H](CCC(=O)O)CC(=O)O)NC(=O)[C@@H]1CCCC[C@H]1NC(=O)C[C@@H](NC(=O)C[C@H](CO)NC(=O)[C@@H]1CNCC[C@H]1N)C(C)C	inactive
COc1ccc(C2CC(c3cccs3)=NN2c2nc(-c3ccccc3)cs2)cc1OC (stereo unspecified)	inconclusive: 20 µM [inhibitor, partial curve]
Cn1cc(C(c2ccccc2OCC(=O)O)c2cn(C)c3ccccc23)c2ccccc21	inconclusive: 28.2 µM [quencher, side channel, partial curve]
Cc1nc(N)sc1-c1csc(Nc2ccc(S(N)(=O)=O)cc2)n1	inconclusive: 14.1 µM [quencher, side channel, partial curve]
COc1cccc(NC(=O)c2ccc(-c3ccccc3[N+](=O)[O-])o2)c1	inconclusive: 31.6 µM [quencher, side channel, single point]
CCOc1ccc2ccccc2c1/C=N\NC(=O)c1ccc([N+](=O)[O-])cc1	inconclusive: 14.1 µM [quencher, side channel, partial curve]
CCOC(=O)C1CCCN(C(=O)/C=C/c2cccc([N+](=O)[O-])c2)C1 (stereo unspecified)	inactive
CCOC(=O)c1cc2n(c1N)-c1ccccc1C2=O	inconclusive: 39.8 µM [inhibitor, single point]
O=C(/C=C/c1ccco1)NCc1ccc(F)cc1	inconclusive: 25.1 µM [quencher, side channel, single point]
NC(=S)n1[nH]c(-c2ccc([N+](=O)[O-])cc2)c(N=Nc2ccccc2[N+](=O)[O-])c1=O	inconclusive: 3.16 µM [quencher, side channel, full curve]
CC(=O)Nc1ccc(N2C(=O)c3ccc(C(=O)Nc4nnc(SCc5ccc(F)cc5)s4)cc3C2=O)cc1	inconclusive: 7.94 µM [quencher, side channel, partial curve]
O=C(Nc1ccc2oc(-c3ccccc3F)nc2c1)c1ccccc1F	inconclusive: 35.5 µM [inhibitor, single point]
COc1ccccc1/C=C/CN1CCCC(CO)(Cc2cccc(Cl)c2)C1 (stereo unspecified)	inconclusive: 17.8 µM [fluorescent, side channel, partial curve]
CC(C)/C=N/NC(=O)c1cc(Br)ccc1O	inconclusive: 25.1 µM [quencher, side channel, single point]
CCc1cccc(CC)c1NC(=S)NCCc1c(C)[nH]c2ccccc12	inconclusive: 28.2 µM [quencher, side channel, partial curve]
CN1/C(=C\C(=O)Nc2ccc(F)cc2)C(C)(C)c2ccccc21	inconclusive: 20 µM [quencher, side channel, single point]
CCOc1ccc(C(=O)Nc2nnc(S(=O)(=O)Nc3ccccc3C)s2)cc1	inconclusive: 39.8 µM [inhibitor, single point]
COc1ccccc1N1CCN(C(=O)c2cc3c(=O)n4cccc(C)c4nc3s2)CC1	inconclusive: 5.01 µM [inhibitor, full curve, poor fit]
COc1ccc(O)c(-c2cc(-c3ccc(F)cc3)n[nH]2)c1	inconclusive: 12.6 µM [quencher, side channel, partial curve]

Compound	Potency
CCn1c(CNC(=O)c2ccc3c(c2)OCO3)nnc1SCC(=O)Nc1ccccc1F	inconclusive: 4.47 µM [inhibitor, single point]
O=C(Cn1c(=O)oc2ccccc21)Nc1ccc(Cl)cc1Cl	active: 31.6 µM
O=C(/C=C/c1cccs1)Nc1cccc(NC(=O)/C=C/c2cccs2)n1	inconclusive: 3.55 µM [quencher, side channel, full curve, poor fit]
COc1ccc(OC)c(S(=O)(=O)N2CCCC(C(=O)NCc3ccncc3)C2)c1 (stereo unspecified)	inconclusive: 6.31 µM [inhibitor, full curve]
CCOc1ccc(C2Nc3cccc4cccc(c34)N2)cc1OC	inconclusive: 10 µM [quencher, side channel, partial curve]
O=C(NC(=S)Nc1ccccc1Cl)c1csnn1	inconclusive: 22.4 µM [quencher, side channel, single point]
CCOC(=O)N1CCN(c2ncc(C(F)(F)F)cc2Cl)CC1	inconclusive: 14.1 µM [fluorescent, side channel, partial curve]
CCCCn1c(SCc2nnc(-c3ccccc3)o2)nc2c1c(=O)n(C)c(=O)n2C	inconclusive: 25.1 µM [fluorescent, side channel, single point]
O=C(CSc1nnc2c(n1)[nH]c1ccc(F)cc12)Nc1ccccc1F	inconclusive: 20 µM [fluorescent, side channel, partial curve]
COCCNC(=S)N(CCc1c(C)[nH]c2ccc(C)cc12)Cc1ccco1	inconclusive: 28.2 µM [quencher, side channel, single point]
Brc1ccc(-c2nc(N/N=C/c3cccnc3)c3ccccc3n2)cc1	inconclusive: 8.91 µM [quencher, side channel, full curve]
Cc1ccc(-c2cc(C(=O)Nc3c(C)n(C)n(-c4ccccc4)c3=O)no2)cc1	inconclusive: 10 µM [fluorescent, side channel, partial curve]
O=C(O)c1cccnc1Nc1ccc(Cl)cc1	inconclusive: 31.6 µM [quencher, side channel, single point]
CC(=O)Cc1nsc(NC(=O)c2ccc(-c3ccc(Cl)c(Cl)c3)o2)n1	inconclusive: 28.2 µM [quencher, side channel, single point]
Cc1c(Br)c(O)c(Br)c(O)c1/C=N/n1c(-c2ccccc2)n[nH]c1=S	inconclusive: 31.6 µM [quencher, partial curve]
O=C(CN1CCC(n2nnc3cc(C(F)(F)F)ccc32)CC1)Nc1ccc2c(c1)CCC2	inactive
O=C1CCc2cc(S(=O)(=O)NCCC(=O)N3CCN(c4cccc(Cl)c4)CC3)ccc2N1	inactive
Cc1cccc(OCc2ccc(C(=O)N3CCOCC3)o2)c1	inconclusive: 15.8 µM [inhibitor, partial curve, poor fit]
